# Laboratory results reported in publication PMC12040169 (PLOS Biology, 2025).
# The other results are listed elsewhere or left out.
# Test system: T1, C. trachomatis L2/434/Bu expressing GFP (CTL2-GFP)
# T1 construct: L2/434/Bu GFP intracellular growth in HeLa cells
# Design: species or system HeLa; C. trachomatis total inclusion area by high-content imaging, normalised to DMSO
# Details: total inclusion area; 28.5 h, 10 µM; inhibitor
# Procedure, shortened: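 Imaging read-out: GFP inclusions and Hoechst nuclei captured by high-content imaging after fixation. Inclusion area/number = chlamydial growth; nuclei count = host cell viability. MIC calculated per earlier method.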
row,SMILES,% of control remaining
1,O=C1N[C@@H](CC2CCCCC2)C(=O)N2CCN(C(=O)c3cccc(F)c3)C[C@H]12 [CBK289599],96.1462
2,CC1CCc2nc(NC(=O)C3CN(S(=O)(=O)c4ccc(F)cc4)C3)sc2C1 (centres unmarked) [CBK286004],94.2831
3,O=C(Nc1ccccc1-c1ccccc1)c1cc(-c2ccncc2)nc2ccc(Cl)cc12 [CBK267759],93.9179
4,Cc1ccc2[nH]c3c(c2c1)CC(NS(=O)(=O)c1c(N)noc1C)CC3 (centres unmarked) [CBK306270],24.4988
5,O=C(O)c1ccc(CN2CCOCC2)o1 [CBK261426C],93.0567
6,COC(=O)c1cccc(CN2CCC3(CC2)OCCc2c3[nH]c3ccc(F)cc23)c1 [CBK040326],93.241
7,Cc1cc(NC(=O)C2CCN(C(=O)CCSc3ccccc3)CC2)no1 [CBK304329],63.468
8,CSCCC(C(=O)O)N1CNC(=S)NC1 (centres unmarked) [CBK011382],47.7465
9,Cc1ccc(NC(=O)N2CCCC(C(=O)O)C2)cc1 (centres unmarked) [CBK161371],110.442
10,O=C(c1ccccc1)c1ccc(S(=O)(=O)N2CCCN(Cc3cc(F)c(F)c(F)c3)CC2)cc1 [CBK062777],92.7916
11,O=C(O)C1CSC(c2ccccc2)N1 (centres unmarked) [CBK261008],88.9782
12,Cc1ccc(C(=O)N2CCN(C(=O)CN3CCN(C)CC3)C2)cc1 [CBK024841C],95.3619
13,O=C(O)c1cccc(NS(=O)(=O)c2ccc(-c3cnco3)cc2)c1 [CBK155726],59.7581
14,N=c1n(CCN2CCCC2)c2ccccc2n1CC(O)c1ccc(Cl)c(Cl)c1 (centres unmarked) [CBK263448C],70.2674
15,CC(C)CC(=O)N[C@@H](C)Cn1nc(-c2cccs2)oc1=O [CBK284336],61.0752
16,CCN(CC)C(=O)c1ccccc1NS(=O)(=O)c1ccc(OC)c(OC)c1 [CBK045423],54.7738
17,N#Cc1ccc(Oc2ccc(C(=O)NCC(=O)O)cc2)cc1 [CBK286579],77.6487
18,Cc1nn(-c2ccccc2)c(Cl)c1C1NC(=O)c2c(sc(C)c2C)N1 (centres unmarked) [CBK288086],37.0846
19,CC(C)c1csc(NC(=O)CC2CCN(S(=O)(=O)c3cccc(F)c3)CC2)n1 [CBK285902],117.643
20,Cc1nnc(C(C)N2CCN(Cc3noc(C(C)(C)C)n3)CC2)o1 (centres unmarked) [CBK305171],118.339
21,Oc1ccccc1/C=N/CC(O)C/N=C/c1ccccc1O [CBK261112],98.4831
22,O=C(NCCN1CCOCC1)c1cc(-c2ccc(Cl)cc2Cl)nc2ccccc12 [CBK265379],113.458
23,Cc1ccc(-n2c(SCC(=O)Nc3sc4c(c3C#N)CCCC4)nnc2-c2ccccc2O)c(C)c1 [CBK268692],103.532
24,CCCNc1nc(Cl)nc(NC(C)(C)C)n1 [CBK091674],61.0456
25,Cc1ccc(C(O)CN2CCC(O)(c3ccc(F)cc3)CC2)cc1 (centres unmarked) [CBK283309],97.7642
26,O=C(NCc1ccccc1)c1ccnc2ccccc12 [CBK200191],95.5907
27,CS(=O)(=O)c1ccc(CN2C[C@@H]3OCC(=O)N(c4ccccc4)[C@@H]3C2)cc1 [CBK289237],97.3945

row,SMILES,% of control remaining
1,Cc1nn2c(CN(C(=O)COc3ccccc3)c3ccccc3)nnc2c2ccccc12 [CBK268036],96.3436
2,C/C(=N\NS(=O)(=O)c1ccc(C)cc1)C(C)(C)CC(=O)O [CBK263601],80.1578
3,O=C(c1cccc(C(F)(F)F)c1)N1CCCCCC1 [CBK074291],127.036
4,O=C(NCCc1cccs1)Nc1cccc(CN2CCCCC2)c1 [CBK306882],19.2671
5,Oc1cccc(-c2nccnc2NCc2cccs2)c1 [CBK037343],97.2636
6,COc1ccc(C(=O)Nc2ccccc2OC2CCNCC2)cc1 [CBK050282T],103.625
7,CC(=O)N1N=C(COc2ccc(C)cc2)OC1c1ccc(Br)cc1 (centres unmarked) [CBK294396],92.6762
8,CC1CN(C(=O)NC2CC2)C(C)CN1CCCC(c1ccc(F)cc1)c1ccc(F)cc1 (centres unmarked) [CBK024927C],82.4665
9,c1csc(C2NN=C3C4CCN(CC4)C32)c1 (centres unmarked) [CBK021915],50.125
10,COc1ccc(C(=O)N2CCC3(CCN(C(=O)Cc4cc(C)no4)C3)C2)cc1OC (centres unmarked) [CBK131784],92.4865
11,c1ccc(OCCOc2cccnc2N2CCNCC2)cc1 [CBK200000C],107.92
12,CCCCN(C)c1c(C)nc2c(OCC3CCCCO3)cccn12 (centres unmarked) [CBK147180],106.703
13,CN(Cc1cccc2ncccc12)C(=O)c1cc(C2CC2)nn1C [CBK282537],109.931
14,Nc1ncc(Br)nc1N1CCC[C@@H]1CO [CBK085450],105.615
15,COc1cc(/C=N/NC(=O)CSc2n[nH]c(=O)[nH]c2=O)cc(OC)c1O [CBK263527],110.117
16,CC[C@H](C)[C@H](NC(=O)C1CCN(S(=O)(=O)c2ccc(Cl)c(C(F)(F)F)c2)CC1)C(=O)O [CBK297117],87.3725
17,Cn1cnnc1SCCNC(=O)N1CCCN(Cc2cccs2)CC1 [CBK307485],80.5768
18,NCCNC(=O)c1ccc(-c2cccc(C(F)(F)F)c2)o1 [CBK115927C],115.052
19,O=[N+]([O-])c1c(N(CCO)CCO)cc(Cl)c2nonc12 [CBK261446],99.4784
20,NC(=O)c1cccc(-n2cc(-c3ccsc3)nn2)c1 [CBK113076],108.741
21,C=CCn1c(SCC(=O)Nc2nc3ccc(OCC)cc3s2)nc2cc(C(=O)O)ccc2c1=O [CBK297520],56.0912
22,C=C(C)Cn1c(-c2ccccc2C)nnc1S(=O)(=O)CC(C)C [CBK200074],120.689
23,CCCC12CN3CC(CCC)(CN(C1)C3c1ccc([N+](=O)[O-])cc1)C2=O (centres unmarked) [CBK264481],114.43
24,CN(Cc1ccc(-c2ccc(S(C)(=O)=O)cc2)nc1)C1CCN(C(=O)Cc2cccc(C(F)(F)F)c2)CC1 [CBK164104T],57.8616
25,Cc1nn(C)c(N2CCNCC2)c1NC(=O)C1=CC(=O)CC(C)(C)O1 [CBK050362T],88.1185
26,CN(C(=O)CCC(=O)O)c1ccccc1C(=O)O [CBK261429],104.492
27,O=C(Cc1ccccc1F)N1CCC(c2n[nH]c3ncccc23)CC1 [CBK284908],100.335

row,SMILES,% of control remaining
1,O=C1NC2(CCN(C(=O)c3ccco3)CC2)Nc2ccccc21 [CBK284762],60.9532
2,CC(C)Nc1cc(SC2CCCCC2)ncn1 [CBK107163],92.5903
3,O=C(NCC(c1ccco1)N1CCCC1)N1CCc2ccccc2C1 (centres unmarked) [CBK304392],65.9877
4,COc1cc(C(=O)Nc2ncccc2OCCCC#N)ccc1C [CBK304568],78.5503
5,Nc1nnc(C(=O)c2cc(Br)ccc2N)s1 [CBK009811],66.2925
6,Cc1ccc(N(Cc2ccco2)C(=O)c2cccc(S(=O)(=O)N(C)C)c2)cc1 [CBK267578],90.4809
7,COc1ccc(-n2nc3ccc(NC(=O)c4sc5ccccc5c4Cl)cc3n2)cc1Cl [CBK264633],102.913
8,O=C(CN1C(=O)N2CCN=C2c2ccccc21)N1CCCC1 [CBK283945],105.536
9,O=c1[nH]c(=O)c2cc(S(=O)(=O)N3CCCC(c4ccccc4)C3)ccc2[nH]1 (centres unmarked) [CBK286381],95.3356
10,Nc1ncnc2c1nc1n2[C@@H]2O[C@@H]([C@H](O)C2O)[C@H]1O (some centres unmarked) [CBK201305],118.483
11,CC1(c2ccccc2)CC(C)(C)N(C(=O)CSc2nc3ccccc3o2)c2ccccc21 (centres unmarked) [CBK262466],91.5161
12,Fc1cccc(N2CCN(Cc3ccccc3)CC2)n1 [CBK000144],95.6726
13,NS(=O)(=O)c1ccc(CCNC(=O)c2ccc(-c3ccccc3)nc2NCCc2ccccn2)cc1 [CBK076616],149.637
14,CC1=CC(C)(C)N(CC(=O)c2ccc([N+](=O)[O-])cc2)c2c(C)cccc21 [CBK261652],83.3301
15,CSc1nc2ccc3nc(NC(C)=O)sc3c2s1 [CBK287567],127.844
16,CCCOc1ccc(O)cc1 [CBK122802],119.515
17,O=c1cc(N2CCCC2)cnn1Cc1cscn1 [CBK304635],43.2131
18,Sc1nnc(COc2ccccc2)n1/N=C/c1ccncc1 [CBK265360],106.197
19,O=C(c1cc(S(=O)(=O)NCc2ccco2)c(Cl)cc1Cl)N1CCCC1 [CBK306076],40.9797
20,N=C1NC(=O)/C(=C/c2cccc(OCc3cccc4ccccc34)c2)S1 [CBK263610],109.85
21,CC(C)(C)c1ccnc(N[C@H]2CO[C@H]3[C@@H]2OC[C@@H]3NS(=O)(=O)Cc2ccccc2)n1 [CBK289521],91.0095
22,OC[C@H]1CCCN1c1nc(Br)cn2c(-c3ccccn3)cnc12 [CBK094394],91.3396
23,CSCCCNC(=O)c1ccccc1Nc1cccc(C(F)(F)F)c1 [CBK149551],22.8983
24,CN(Cc1ccccc1)S(=O)(=O)c1ccc2c(c1)n(C)c(=O)n2C [CBK266644],114.4
25,CN1CCN(c2nc(-c3ccccc3)cc(-c3ccc(Br)cc3)n2)CC1 [CBK262774],104.22
26,Cc1nc2c(c(=O)[nH]1)CCN(Cc1[nH]c3ccc(F)cc3c1C)C2 [CBK283996],97.2375
